Laboratory results: PubChem BioAssay AID1460 (National Center for Advancing Translational Sciences (NCATS), 2008)
In all, about 270,000 compounds went through this assay and about 5,800 (2.1%) were called active. The shares of active, inactive and inconclusive entries below differ from those in the screen. Calls follow the shape of the dose curve; as a rule, active = well fitted inhibition curve with a large enough effect; inconclusive = small, poorly fitted or top-dose-only effect; inactive = flat fitted curve, though single readings scatter. A potency beside an inconclusive call is a rough fit, not a confirmed value.
Also: nearly all actives have a fitted effect of over 55% in size.
Potency is read from the fitted curve at half-maximal effect; tags tell the direction and shape of the fitted curve.

Each compound was assayed against Microtubule-associated protein tau (Homo sapiens) (UniProt P10636) (assay: qHTS for Inhibitors of Tau Fibril Formation, Thioflavin T Binding). Conditions: recombinant tau K18 P301L (four-repeat tau fragment), heparin-induced fibrillization, ThT fluorescence; series mostly up to 57.4 µM.
Sequence of UniProt P10636 (P10636 whole entry, looked up, the tested form may be a part): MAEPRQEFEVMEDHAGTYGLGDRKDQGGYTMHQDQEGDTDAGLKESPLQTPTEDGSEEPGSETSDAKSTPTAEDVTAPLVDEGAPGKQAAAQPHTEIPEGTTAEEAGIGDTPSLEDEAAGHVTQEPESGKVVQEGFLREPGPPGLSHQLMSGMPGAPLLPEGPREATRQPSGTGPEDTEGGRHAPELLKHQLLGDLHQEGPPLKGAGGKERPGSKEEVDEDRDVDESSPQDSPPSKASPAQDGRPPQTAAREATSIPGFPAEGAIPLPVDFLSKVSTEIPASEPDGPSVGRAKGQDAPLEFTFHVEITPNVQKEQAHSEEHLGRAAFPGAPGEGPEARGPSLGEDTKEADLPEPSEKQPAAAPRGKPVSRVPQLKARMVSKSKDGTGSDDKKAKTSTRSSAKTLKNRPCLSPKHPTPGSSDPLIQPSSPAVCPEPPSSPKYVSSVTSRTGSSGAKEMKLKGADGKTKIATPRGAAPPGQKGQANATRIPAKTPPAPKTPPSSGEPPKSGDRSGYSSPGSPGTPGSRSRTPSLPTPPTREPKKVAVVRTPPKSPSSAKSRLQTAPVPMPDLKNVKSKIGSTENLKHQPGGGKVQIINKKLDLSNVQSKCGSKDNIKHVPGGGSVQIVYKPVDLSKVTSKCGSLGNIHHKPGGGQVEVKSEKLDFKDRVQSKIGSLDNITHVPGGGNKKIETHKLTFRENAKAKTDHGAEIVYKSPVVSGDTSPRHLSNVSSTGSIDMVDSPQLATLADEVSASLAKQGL
How it was run: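 Tau K18 P301L fragment (15 uM unlabeled plus 0.24 uM Alexa 594-labeled) in 100 mM sodium acetate pH 7 with compound, fibrillization induced by 20 uM heparin for 6 hr at 37 C. Thioflavin T (30 uM) added, fluorescence read after 1 hr (ex 450, em 510 nm).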
With `COc1ccc(CCNC(=O)COc2ccc(-c3ccc(C#N)cc3)cc2)cc1` the Potency was inconclusive: 0.178 µM [inhibitor, full curve, poor fit].
For `CC1=CC(C)(C)N(C(=O)C(C)N2C(=O)c3ccccc3C2=O)c2c(C)cc(C)cc21` (stereo not given), the Potency was inconclusive: 25.1 µM [inhibitor, single point].
In the case of `O=C(CSc1nnc(-c2cccs2)n1Cc1ccco1)Nc1ccc2c(c1)OCO2`, the Potency is reported as “inactive”.
In the case of `O=C(Nc1ccc(Nc2ccccc2)cc1)N1CCOCC1`, the Potency is reported as inconclusive: 25.1 µM [inhibitor, partial curve].
`CC(C)(C)c1cc[n+](-c2[nH]c(=O)sc2/C=N/NC([S-])=Nc2ccccc2)cc1` was tested, and the Potency was inconclusive: 15.8 µM [inhibitor, partial curve].
In the case of `Cc1cc(C)c(C#N)c(SCc2cn3c(C)cccc3n2)n1`, the Potency is reported as inconclusive: 0.708 µM [activator, partial curve, poor fit].
`Cc1sc(C(C2C(=O)CC(C)(C)CC2=O)C2C(=O)CC(C)(C)CC2=O)cc1[N+](=O)[O-]` was tested, and the Potency was inconclusive: 7.08 µM [inhibitor, partial curve].
With `O=C(NN1C(=O)CSC1=S)C(=O)NN1C(=O)CSC1=S` the Potency was inconclusive: 7.08 µM [inhibitor, partial curve].
`COC(=O)c1ccccc1-c1ccc(C(c2c(C)[nH][nH]c2=O)c2c(C)[nH][nH]c2=O)o1` was tested, and the Potency was “inactive”.
In the case of `COc1ccc(NC(=S)N(CCc2c(C)[nH]c3ccc(C)cc23)Cc2cccnc2)cc1`, the Potency is reported as inconclusive: 25.1 µM [inhibitor, partial curve].
For `CN(C)c1ccc(CNC(=O)CN2C(=O)c3cccnc3Oc3ccc(Cl)cc32)cc1`, the Potency was inconclusive: 17.8 µM [inhibitor, single point].
`O=C1Cc2cccc3cccc1c23` was tested, and the Potency was “inactive”.
In the case of `CC(CO)Nc1nc(SCc2ccccc2)nc2sc3c(c12)CCC3` (stereo not given), the Potency is reported as inconclusive: 20 µM [inhibitor, partial curve].
With `Cc1cc(C)cc(-n2c3nc4ccccc4nc3c3c(=O)n(Cc4ccco4)cnc32)c1` the Potency was inconclusive: 17.8 µM [inhibitor, partial curve].
`CCOc1cc(/C=N/NC(=O)CSc2nncn2C)ccc1OC(=O)c1ccc(Cl)cc1` was tested, and the Potency was inconclusive: 17.8 µM [inhibitor, partial curve].
With `CCc1ccccc1NC(=O)c1nnn(CC(=O)Nc2cccc(C)c2)c1N` the Potency was “inactive”.
For `O=C(CC1(C(F)(F)F)OCCO1)Nc1ccc2c(c1)OCO2`, the Potency was “inactive”.
In the case of `COc1cc(C(CC(=O)Nc2ccc(Br)cn2)N2Cc3ccccc3C2=O)cc(OC)c1OC` (stereo not given), the Potency is reported as “inactive”.
In the case of `CCOC(=O)CC(=O)CSc1nc2c(cc1C#N)CCCCC2`, the Potency is reported as inconclusive: 17.8 µM [inhibitor, single point].
`O=C(C1COc2ccccc2O1)N1CCN(c2nc3c(F)cccc3s2)CC1` (stereo not given) was tested, and the Potency was inconclusive: 4.47 µM [inhibitor, partial curve].
`COc1ccccc1N1CCN(C(=O)c2cc(-c3ccc(Br)cc3)on2)CC1` was tested, and the Potency was inconclusive: 5.62 µM [inhibitor, partial curve].
With `COc1ccc(C2=NCC(CSc3nnc(-c4ccc5c(c4)OCO5)o3)S2)cc1` (stereo not given) the Potency was inconclusive: 2.82 µM [inhibitor, partial curve].
`COc1ccc2c(c1OC)C(=O)OC2Nc1nc(-c2cc3cc(Br)ccc3oc2=O)cs1` (stereo not given) was tested, and the Potency was inconclusive: 14.1 µM [inhibitor, partial curve].
In the case of `CC(C)C(=O)Nc1nnc(S(=O)(=O)N2CCCCCC2)s1`, the Potency is reported as inconclusive: 0.794 µM [inhibitor, full curve].
`O=c1c2cc3c(nc2[nH]c(=S)n1-c1ccccc1)CCCC3` was tested, and the Potency was “inactive”.
For `COc1cc(C2NC(=O)C(C#N)=C(S)N2c2ccc(C)cc2)ccc1OC(C)C` (stereo not given), the Potency was “inactive”.
In the case of `O=S(=O)(N/N=C\c1c(F)cccc1Cl)c1ccc(Cl)cc1`, the Potency is reported as inconclusive: 17.8 µM [inhibitor, partial curve].
For `COc1ccc(NC(=O)CSc2nnc(-c3ccc(OC)cc3)s2)cc1`, the Potency was inconclusive: 1.41 µM [inhibitor, full curve].
With `O=C(O)c1ccc(N=NN2CCCC2)cc1` the Potency was inconclusive: 15.8 µM [inhibitor, partial curve, poor fit].
`COc1ccc(N2CC3=C(C2=O)C(c2ccc(O)c(OC)c2)NC(=O)N3C)cc1` (stereo not given) was tested, and the Potency was “inactive”.
In the case of `COc1ccccc1NC(=O)c1cc(S(=O)(=O)NCc2ccccc2)ccc1F`, the Potency is reported as inconclusive: 3.98 µM [inhibitor, full curve].
For `CCN(CC)S(=O)(=O)c1cccc(NC(=O)C(=O)c2c(-c3ccccc3)cc3ccccn23)c1`, the Potency was “inactive”.
For `COc1ccccc1N1CC=C(c2cccc([N+](=O)[O-])c2)NC1=O`, the Potency was inconclusive: 12.6 µM [inhibitor, partial curve, poor fit].
`Cc1ccc(S(=O)(=O)Oc2cccc(/C=N/n3cnnc3)c2)cc1` was tested, and the Potency was “inactive”.
`COC(=O)c1cccc(C(=O)Oc2cccc(Br)c2)n1` was tested, and the Potency was inconclusive: 15.8 µM [inhibitor, single point].
With `O=C(Nc1ccc(-c2nc3ccccc3s2)c(O)c1)C1=COCCO1` the Potency was inconclusive: 0.447 µM [inhibitor, full curve, poor fit].
In the case of `O=C(NCCc1cccs1)c1ccc(Cn2c(SCc3ccccc3)nc3cccnc32)cc1`, the Potency is reported as inconclusive: 35.5 µM [inhibitor, single point].
With `Cc1ccc(N(Cc2cccs2)C(=O)Nc2cccc(Cl)c2)cc1` the Potency was “inactive”.
`CCOc1ccc(NC(=S)Nc2ccc3nsnc3c2)cc1` was tested, and the Potency was active: 2.51 µM.
With `Cc1ccc(CNC(=O)c2c(O)nc3ccccn3c2=O)cc1` the Potency was “inactive”.
For `CCn1c(SCC(=O)N2CCN(c3ccccc3)CC2)nnc1-c1ccncc1`, the Potency was “inactive”.
In the case of `O=C(NC(=S)Nc1ccc2c(c1)OCCO2)c1ccccc1F`, the Potency is reported as inconclusive: 14.1 µM [inhibitor, partial curve].
With `COc1cc(C(CCN2CCOCC2)c2c(OC)cc(OC)c3ccc(=O)oc23)cc(OC)c1OC` (stereo not given) the Potency was inconclusive: 35.5 µM [inhibitor, partial curve, poor fit].
For `CCOc1ccc(N=c2cc(-c3ccc(OC)cc3)oc3ccccc23)cc1`, the Potency was inconclusive: 8.91 µM [inhibitor, partial curve].
For `COc1ccc(-c2cc(C(=O)NNC3=NCCC3)c3c(C)nn(-c4ccccc4)c3n2)cc1`, the Potency was “inactive”.
For `COc1ccc(Cl)cc1-c1ccc(C(=O)O)o1`, the Potency was “inactive”.
`COc1cc(S(=O)(=O)Nc2ccc(C)cc2)ccc1N=Cc1c(C)c(C#N)c(=O)n(C)c1O` was tested, and the Potency was inconclusive: 44.7 µM [activator, single point].
For `O=S(=O)(Nc1cccc2ccccc12)c1cccc2nonc12`, the Potency was inconclusive: 15.8 µM [inhibitor, partial curve].
In the case of `COc1ccc(NC(=O)CSc2nccn2-c2ccccc2)cc1`, the Potency is reported as “inactive”.
With `CCCNC(=O)Cn1c(=O)/c(=C\c2ccc(-c3cccc([N+](=O)[O-])c3)o2)s/c1=C\C(=O)C(C)(C)C` the Potency was inconclusive: 7.08 µM [inhibitor, partial curve].
In the case of `Cc1nc2ccc(NC(=O)c3ccco3)cc2s1`, the Potency is reported as inconclusive: 44.7 µM [inhibitor, single point].
With `CC1(C)CN(O)CCN1O` the Potency was “inactive”.
With `CCOc1ccc2c(c1)-c1c(ssc1=S)C(C)(C)N2C` the Potency was active: 14.1 µM.
For `O=C(N/N=C/c1cccs1)c1cc(-c2ccncc2)nc2ccccc12`, the Potency was “inactive”.
`CCOC(=O)c1c(-c2ccc(C)o2)csc1NC(=S)NC(=O)c1cccs1` was tested, and the Potency was inconclusive: 8.91 µM [inhibitor, partial curve].
For `Oc1cc2c(cc1O)[C@H]1c3ccc(O)c(O)c3OC[C@@]1(O)C2`, the Potency was active: 17.8 µM.
`COC(=O)c1[nH]c2ccc(C)cc2c1NC(=O)CN1CCN(c2ccccc2)CC1` was tested, and the Potency was inconclusive: 11.2 µM [inhibitor, partial curve].
In the case of `CN1C(=O)CSc2ccc(NC(=O)NCc3ccc(F)cc3)cc21`, the Potency is reported as inconclusive: 22.4 µM [inhibitor, partial curve, poor fit].
For `CCOc1cc(NS(=O)(=O)c2ccc(Cl)cc2)c(OCC)cc1NC(=O)CC(C)C`, the Potency was inconclusive: 25.1 µM [inhibitor, partial curve].
With `CC(C)(C)c1ccccc1OCCCCCn1ccnc1` the Potency was “inactive”.
With `CCCNC(=O)NC(=O)COc1ccc2oc3ccccc3c2c1` the Potency was inconclusive: 0.224 µM [inhibitor, full curve, poor fit].
`C=CCn1c(Cn2nnc3ccccc32)nnc1SCC(=O)N/N=C/c1cc(Br)cc(OC)c1O` was tested, and the Potency was inconclusive: 15.8 µM [inhibitor, partial curve].
`Cc1cccc(-n2[nH]c3c4c(ccc3c2=O)C(=O)c2ccccc2C4=O)c1` was tested, and the Potency was inconclusive: 3.55 µM [inhibitor, full curve].
With `CN(C)c1ccc(/C=N/NC(=O)c2nonc2N)cc1[N+](=O)[O-]` the Potency was active: 15.8 µM.
`Cc1cc2c(N)cccc2nn1` was tested, and the Potency was active: 3.16 µM.
For `Oc1ccc2ccccc2c1CN1CCN(c2ccccc2F)CC1`, the Potency was inconclusive: 10 µM [inhibitor, partial curve].
`CCOC(=O)c1cc(-c2ccc(OC)cc2)n(CCC(=O)NCc2ccccc2OC)c1C` was tested, and the Potency was “inactive”.
`Oc1c(Cl)cc(Cl)cc1C1=NNC(c2ccc(Cl)cc2)C1` (stereo not given) was tested, and the Potency was inconclusive: 8.91 µM [inhibitor, partial curve].
`Cc1ccc2[nH]c3c(c2c1)CN(C(=O)CN1CCN(c2ccccc2F)CC1)CC3` was tested, and the Potency was inconclusive: 28.2 µM [inhibitor, single point].
With `O=c1cc(-c2ccccc2)nc2cc(-c3ccco3)[nH]n12` the Potency was inconclusive: 17.8 µM [inhibitor, partial curve].
